According to publication PMC3801443:
These are yes or no findings as the source states them, for the method shown. Binding seen in cells or lysates may run through a third protein. Some results given as binding are weak or reduced against the parent protein; the word gives no strength. For part of these data: Where a sequence is shown, tags or fusion partners need not be part of it.

Protein sequences, listed by entry. Tags and fused reporters are not part of them. Residues count along the entry.
UniProt Q99963, residues 285-344: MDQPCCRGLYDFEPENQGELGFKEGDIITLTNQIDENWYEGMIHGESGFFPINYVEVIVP
UniProt Q99962, residues 290-349: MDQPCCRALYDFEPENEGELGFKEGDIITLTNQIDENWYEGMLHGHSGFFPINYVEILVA
UniProt Q62421: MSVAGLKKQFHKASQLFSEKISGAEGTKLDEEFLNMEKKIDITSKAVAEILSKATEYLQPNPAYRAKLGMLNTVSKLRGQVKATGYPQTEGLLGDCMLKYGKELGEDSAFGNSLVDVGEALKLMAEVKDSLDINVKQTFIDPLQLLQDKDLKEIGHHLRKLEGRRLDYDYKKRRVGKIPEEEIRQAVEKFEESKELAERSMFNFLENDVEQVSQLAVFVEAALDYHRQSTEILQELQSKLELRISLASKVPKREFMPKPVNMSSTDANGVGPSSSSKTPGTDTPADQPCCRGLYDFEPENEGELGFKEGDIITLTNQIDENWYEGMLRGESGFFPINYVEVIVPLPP

T1: GST-endophilin A2-SH3 (UniProt O35964)
T1 sequence: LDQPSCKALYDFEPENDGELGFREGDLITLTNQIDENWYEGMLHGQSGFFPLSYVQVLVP


What was measured:
[1] = target: EGFR, endogenous in A431 and HeLa cells (human (endogenous in A431, HeLa)) (UniProt P00533); assay: co-IP; endogenous proteins, HeLa cell lysate; IP with Lpd- or EGFR-specific antibodies or IgG control; cells stimulated with 2 ng/ml EGF for 5 min or not stimulated
[2] = target: EGFR, endogenous in A431 and HeLa cells (human (endogenous in A431, HeLa)) (UniProt P00533); assay: co-IP; endogenous proteins, A431 cell lysate; IP with Lpd- or EGFR-specific antibodies or IgG control
[3] = target: Lamellipodin (Lpd), endogenous in HEK293, A431 and HeLa cells (human (endogenous in HEK293, A431, HeLa)) (UniProt Q70E73); assay: co-IP; HEK293 cells overexpressing EGFR-GFP; IP of endogenous Lpd with Lpd-specific antibodies or control IgG; EGFR detected with anti-GFP antibodies
[4] = target: Lamellipodin (Lpd), endogenous in HEK293, A431 and HeLa cells (human (endogenous in HEK293, A431, HeLa)) (UniProt Q70E73); assay: co-IP; endogenous proteins, HeLa cell lysate; IP with Lpd- or EGFR-specific antibodies or IgG control; cells stimulated with 2 ng/ml EGF for 5 min or not stimulated
[5] = target: Lamellipodin (Lpd), endogenous in HEK293, A431 and HeLa cells (human (endogenous in HEK293, A431, HeLa)) (UniProt Q70E73); assay: co-IP; endogenous proteins, A431 cell lysate; IP with Lpd- or EGFR-specific antibodies or IgG control
GST-endophilin A2-SH3 = target: T1, GST-endophilin A2-SH3; assay: pull-down; purified GST-SH3 domains on glutathione beads, NIH/3T3 cell lysate; lysis buffer 50 mM Tris-HCl pH 7.4, 200 mM NaCl, 1% NP-40, 2 mM MgCl2, 10% glycerol; western blot; only the target purified
GST-endophilin A3-SH3 = GST-endophilin A3-SH3 (UniProt Q99963); assay: as above
GST-endophilin A1-SH3 = GST-endophilin A1-SH3 (UniProt Q99962); assay: as above
[6] = target: endophilin A3, endogenous in NIH/3T3 cells (mouse (endogenous in NIH/3T3)) (UniProt Q62421); assay: co-IP; endogenous proteins, NIH/3T3 cell lysate; IP with Endo3-specific antibodies or control IgG; blot probed with anti-Lpd antibodies

Row | binding (GST-endophilin A2-SH3) | binding (GST-endophilin A3-SH3) | binding (GST-endophilin A1-SH3) | Molecule | further results
1 |  |  |  | Lamellipodin (Lpd), endogenous in HEK293, A431 and HeLa cells (from UniProt Q70E73 1-1250) | binding [1]: binds; binding [2]: binds
2 |  |  |  | EGFR-GFP (from UniProt P00533 25-1210) (receptor) | binding [3]: binds
3 |  |  |  | EGFR, endogenous in A431 and HeLa cells (from UniProt P00533 25-1210) (receptor) | binding [4]: binds; binding [5]: binds
4 | no binding | no binding | no binding | RIAM, endogenous in NIH/3T3 cells (protein, UniProt Q8R5A3 1-670) MGESNEDIDQMFSTLLGEMDLLTQSLGVDTLPPPDPNPPREEFNYTVGFKDLNESLNALEDQDLDALMADLVADISEAEQRTIQAQKESSQNQDRFALLRASDGQGTASGGYGASAAAIDVSHHEEALPPPPVEPMLDLLPPPPPPPPPELLSKEEEEAKAKADKIKLALEKLKEAKVKKLVVKVHMDDSSTKSLMVDERQLARDVLDNLFEKTHCDCNVDWCLYEIYPELQIERVFEDHENVVEVLSDWTRDTENKVLFLEKEERYAVFKNPQNFYLDNKGKKENKETNEKMNAKNKEYLLEESFCGTSIIVPELEGALYLKEDGKKSWKRRYFLLRASGIYYVPKGKTKTSRDLACFIQFENVNIYYGIQCKMKYKAPTDHCFVLKHPQIQKESQYIKYLCCDDARTLSQWVMGIRIAKYGKTLYDNYQRAVARAGLASRWTNLGTVGTPMPAQPSTVSSGLKTGTSQPNGQMPQAIPSAGPPLQEAQTQIETTKDEKQGLGNHSPGATRENHRPKSSLPPPPPPVRRSSDTCGSPALPSKVKGPGTCTFPHPPENFLPPPPPPPPEEDNSGLLPPPPPPPYLEEPPDFVPPPPPPAAVEDSALPPPPPPPPCLSQEITKSSPLPPKKPLVPPKRQENQGLPGAPGNSEQDFMSDLMKALQKKRGNIP | 
5 | binds | binds | binds | Lamellipodin (Lpd), endogenous in NIH/3T3 cells (protein, UniProt F2Z3U3 1-1266) MEQLSDEEIDHGAEEDSDKEDQDLDKMFGAWLGELDRLTQSLDSDKPKEPVKRSPLRQETNMANFSYRFSIYNLNEALNQGETVDLDALMADLCSIEQELSSIGSGNSKRQVTEPKVPQKLPAGRHTSKHGTLRGPSSSSNRTTKPSHANYSLDDITAQLEQASLSMDEAAQQSLVEDPKPLVTNQHRRTASAGTVSDAEARSISNSSRSSITSAASSMDSLDIDKVTRPQELDLTTHQGQPITEEEQAAKLKAEKIRVALEKIKEAQVKKLVIRVHMSDDSSKTMMVDERQTVRQVLDNLMDKSHCGYSLDWSLVETISELQMERIFEDHENLVENLLNWTRDSQNKLIFMERIEKYALFKNPQNYLLGKKETAEMADRNKEVLLEECFCGSSVTVPEIEGVLWLKDDGKKSWKKRYFLLRASGIYYVPKGKAKVSRDLVCFLQLDHVNVYYGQDYRNKYKAPTDCCLALKHPQIQKKSQYIKYLCCDDARTLHQWVNGIRIAKYGKQLYTNYQEALKRTESAYDWTSLSSSSIKSGSSSSSIPESQSNHSNQSDSGVSDTLPTGHIRSQSTVSSIFSEAWKRGTQLEESSKARMESMNRSYTSLMPPLSPQTKIITPYTASQPSPPLPPPPPPPPPPPPPPPPPPPPLPSQSAPSSGSAATMFVKYSTITRLQNAAQHSGTLFKSPTPPAMQPLPLASQSKAQIVVPPNGVIPPPPPPPPPPTPGSAMAQLKPVPCAPSLPQFSPQPPPLKIHQVQHLPQTAPPTPPPAPPITATVPPQAPPKPLVTIPPSASTKTVSPVVAQAVPPTPAPPVPPAKKQPVFPVSHIPPTPPVQPTPHPPPTLPKQQSFGVKPPPSPLSPVPSVVKQIASQFPPPPTPPPVDSQPLKSLPASGTPQSPPAVKAKPKWQPSSIPVPSPDFPPPPPESSLVFPPPPPPAPAPAPPPPPPPPPPPPPVPPTASPTPDKGGSPGKKTSKMSSPGGKKPPPTPQRNSSIKSGSCAEHPEPKRPSVDSLVSKFAPPAESGSPSKETPPPPAAPPKPGKLHLSGVNLPGIHQQGIVSAKASVLSGRGKDVVVEFPSPPSDSDFPPPPPEIELPLPPIEIPAVFSGNTSPKVAVVNPQPQLWSKTSVKKAPPPTRPKRNDSTRLTQADISEQPAMTTVVPQVPTSPKSSLSVQPGFLADLNRTLQRKSITRHGSLSSSRMSRAEPTATMDDMALPPPPPELLSDQQKAGFGGSHISGYATLRRGPPPAPPKRDQNTKLSRDW | binding [6]: binds
